This is an account of results in patent publication US20210340238A1, “TGFß1 INHIBITORS AND USE THEREOF” (Scholar Rock, Inc., priority 2018, published 2021).

Design in all cases: species or system human
The test system of one assay is Cell-associated proTGFβ1. In words: Octet binding, cell average of hGARP and hLRRC33 complexes. As to conditions: average KD of (E) and (F), read-out: (G) Cell AVRG. An excerpt: (§1) Column (A) of the table provides monoclonal antibodies with discrete amino acid sequences. […] Columns (B), (C), (E) and (F) provide affinities of each of the listed antibodies, measured in KD, towards the antigen complex as indicated, respectively. […] Average KD values calculated from (B) and (C) are shown in the corresponding column (D), which collectively represents affinities of the antibodies to ECM- or matrix-associated proTGFβ1 complexes. Similarly, Average KD values calculated from (E) and (F) are shown in the corresponding column (G), which collectively represents affinities of the antibodies to cell-surface or cell-associated proTGF complexes. Finally, relative ratios between the average KD values from columns (D) and (G) are expressed as fold bias” in column (H). Thus, the greater the numerical of column (H) is, the greater bias exists for the particular antibody, when comparing binding preferences of the antibody for matrix-associated complexes to cell-surface complexes. This is one way of quantitatively representing and comparing inherent bias of antibodies to their target complexes. Such analyses may be useful in guiding the selection process for a candidate antibody for particular therapeutic use.

The subject of assay [1] is Matrix-associated proTGFβ1 vs Cell-associated proTGFβ1. In words: Octet binding, matrix vs cell bias (G/D). The note with it: ratio of cell average KD to ECM average KD.
Text: as §1
On the technique in general: In BLI a coated tip is dipped into the sample, and binding shifts an interference pattern.

Assay [2] concerns the target Matrix-associated proTGFβ1. In words: Octet binding, ECM average of hLTBP1 and hLTBP3 complexes. As to conditions: average KD of (B) and (C), read-out: (D) ECM AVRG.
Text: as §1

Assay [3] concerns the target Matrix-associated proTGFβ1. Kind of assay: MSD-SET binding, ECM average of hLTBP1 and hLTBP3 complexes. The note with it: average KD of (B) and (C), read-out: (D) ECM AVRG. An excerpt: (§2) Column (A) of the table provides monoclonal antibodies with discrete amino acid sequences. […] Columns (B), (C), (E) and (F) provide affinities of each of the listed antibodies, measured in KD, towards the antigen complex as indicated, respectively. […] Similarly, Average KD values calculated from (E) and (F) are shown in the corresponding column (G), which collectively represents affinities of the antibodies to cell-surface or cell-associated proTGF complexes. Finally, relative ratios between the average KD values from columns (D) and (G) are expressed as fold bias” in column (H). Thus, the greater the numerical of column (H) is, the greater bias exists for the particular antibody, when comparing binding preferences of the antibody for matrix-associated complexes to cell-surface complexes. This is one way of quantitatively representing and comparing inherent bias of antibodies to their target complexes. […] Select antibodies of the present disclosure, as measured by MSD-SET, show context-bias (i.e., greater than five-fold bias) or unbias (i.e., less than 5-fold bias) toward matrix-associated complexes over cell-associated complexes. […] In addition, the recombinant antibodies used in the Octet assay were expressed as IgG1 antibodies in yeast, while the antibodies used in the MSD assay were expressed as IgG4 antibodies in mammalian cells.

The subject of assay [4] is Matrix-associated proTGFβ1 vs Cell-associated proTGFβ1. Kind of assay: MSD-SET binding, matrix vs cell bias (G/D). As to conditions: ratio of cell average KD to ECM average KD.
Text: as §2

Residue numbers refer to the chain shown, from its start.

B1: Ab8: monoclonal antibody binding proTGFβ1 complexes; VH SEQ ID NO: 212, VL SEQ ID NO: 211 (antibody, V domains shown)
VH: QVQLVESGGGVVQPGRSLRLSCAASGFTFSDYAMVWVRQAPGKGLEWVSAISGSGFTTYYADSVKGRFTISRDNSKNTLYLQMNSLRAEDTAVYYCARVSSGHWDFDYWGQGTLVTVSS
VL: [… about 100 residues …]FTFGQGTKVEIK
Turning to B1, the Kd in the assay with Cell-associated proTGFβ1 was 12.7 nM; in assay [2], 0.316 nM. Besides, the “(H) G/D (fold bias)” value in assay [1] is 40.25 fold.

B2: Ab36: monoclonal antibody binding proTGFβ1 complexes; VH SEQ ID NO: 240, VL SEQ ID NO: 211 (antibody, V domains shown)
VH: EVQLLESGGGLVQPGGSLRLSCAASGFTFRNYAMSWVRQAPGKGLEWVSSISGSGGATYYADSVKGRFTISRDNSKNTLYLQMNSLRAEDTAVYYCARVSSGHWDLDYWGQGTLVTVSS
VL: [… about 100 residues …]FTFGQGTKVEIK
For B2, the Kd in the assay on Cell-associated proTGFβ1 is 7.11 nM; in assay [2] it was 0.384 nM. In addition, in assay [1], the “(H) G/D (fold bias)” value worked out at 18.5156 fold.

B3: Ab35: monoclonal antibody binding proTGFβ1 complexes; VH SEQ ID NO: 238, VL SEQ ID NO: 211 (antibody, V domains shown)
VH: B2 VH with G102Y, H103L, L106F
VL: [… about 100 residues …]FTFGQGTKVEIK
Take B3: the results for the Kd (in the assay on Cell-associated proTGFβ1; in assay [3]; in assay [2]) were 3.96 nM, 0.265 nM and 0.164 nM, respectively. For the same molecule, the figures for the “(H) G/D (fold bias)” value in assay [1] and in assay [4] were 24.13 fold and 4.15 fold, respectively.

B4: Ab7: monoclonal antibody binding proTGFβ1 complexes; VH SEQ ID NO: 210, VL SEQ ID NO: 211 (antibody, V domains shown)
VH: B2 VH with R30A, N31D, S35T, S50A, S54T, G56A, A57H, L106F
VL: [… about 100 residues …]FTFGQGTKVEIK
Consider B4, for which the figures for the Kd (in the assay with Cell-associated proTGFβ1; in assay [2]) were 14.2 nM and 0.452 nM, respectively. In assay [1], the “(H) G/D (fold bias)” value was 31.3 fold.

B5: Ab9: monoclonal antibody binding proTGFβ1 complexes; VH SEQ ID NO: 214, VL SEQ ID NO: 211 (antibody, V domains shown)
VH: B1 VH with R16G, D31S, Y32F, V35T, F56A, T57A, Y60F
VL: [… about 100 residues …]FTFGQGTKVEIK
On to B5, for which the Kd in the assay on Cell-associated proTGFβ1 was determined as 8.4 nM; in assay [2], 0.316 nM. In assay [1], the “(H) G/D (fold bias)” value stood at 26.58 fold.
